This note sets out measurements from PMC9574860, “Chemical Toolkit for PARK7: Potent, Selective, and High-Throughput” (Journal of Medicinal Chemistry, 2022).

SMILES strings stand for the structures. Out of some 7,900 compounds screened, about 400 (5.1%) showed an effect of 50% or more. This is one part of the list.

Chain of Parkinson's disease protein 7 (PARK7/DJ1) (Q99497 whole entry, looked up, the tested form may be a part): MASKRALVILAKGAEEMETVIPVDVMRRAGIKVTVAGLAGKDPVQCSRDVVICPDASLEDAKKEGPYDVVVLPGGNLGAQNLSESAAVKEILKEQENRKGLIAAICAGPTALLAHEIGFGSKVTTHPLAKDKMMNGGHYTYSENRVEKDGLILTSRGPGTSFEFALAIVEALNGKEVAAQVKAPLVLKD

The assay concerns the target Parkinson's disease protein 7 (PARK7/DJ1) (human, UniProt Q99497). The assay is described as follows: primary screen, percent inhibition; read as competition with a fluorescent probe by fluorescence polarization; higher = more effect of the substance. As to conditions: 100 µM. The protocol:
The screen was conducted using the conditions as described above in 1536-well plates (Corning 3724) with a reaction volume of 8 μL per well. The compound library containing 7887 covalent fragments was purchased at Enamine Ltd. and received as 100 mM DMSO stocks in 384 well LDV Echo plates (Labcyte LP-0200). Stock solutions of 0.26 μM PARK7 and 80 nM JYQ-107 were prepared. Using a Labcyte Echo550 acoustic dispenser, 8 nL of the DMSO stock solution of the library compounds was transferred from the source plates into the empty 1536-well screening plates to obtain a 100 μM final compound concentration. Next, PARK7 (6 μL, final concentration 0.2 μM) was dispensed using a Biotek MultiflowFX liquid dispenser and incubated for 2 h, followed by dispensing the probe JYQ-107 (2 μL, final concentration 20 nM). After 2 h incubation, the FP signal was recorded on a BMG Labtech PHERAstar plate reader (λex/em 480/520 nm). The relative loss of FP signal compared with reference controls was used to calculate the remaining enzyme activity.
As to `O=c1c2ccccc2nc(S)n1CC1CCCO1` (stereo not shown), the Inhibition % worked out at 0.968%.
On to `CCN(CC)C(=O)Oc1cccc2ccc(C)nc12.Cl`, for which the Inhibition % was determined as 7.91%.
`OB(O)c1c(F)ccc2c1OCO2`: the Inhibition % was found to be 11.6%.
The value for `Cl.Cn1cc(CCCCl)cn1` was 6.06%; that for `N#CCCN(C(=O)CCl)c1cccc(Cl)c1` was 29.3%; that for `CC1(C)OB(c2cccc(Cn3ccnc3)c2)OC1(C)C.Cl` was 4.68%.
The value for `COc1ccccc1-c1ccc(C=C(C#N)C(N)=O)cc1` was 1.36%; that for `Cc1nc(SC2CC(C)OC2=O)nc(C)c1C` (stereo not shown) was 3.23%; that for `CCOc1cc(C)c(C)cc1S(=O)(=O)n1cccn1` was 1.55%.
With `ClCCc1ncc(-c2ccccc2)o1`, the Inhibition % came out at 4.81%.
For `C=CC(=O)Nc1n[nH]c2cc(OC)ccc12` the value was 4.97%; for `O=C(CCc1ccccc1)NC1CCN(C(=O)CCl)CC1`, 17.8%.
For `N#CC(=Cc1cccc(O)c1)C(=O)NCc1ccco1` the value was 15.6%; for `N#Cc1ccc(NCC(O)c2ccc(Cl)c(F)c2)cn1` (stereo not shown), -3.59%.
Turning to `Cc1ccc(B2OC(C)(C)C(C)(C)O2)c(C#N)c1`, the Inhibition % is given as -0.714%.
The value for `CC1CN(C(=O)CCN2CCSC2=O)CCO1` (stereo not shown) was -3.2%; that for `CC(C)(C)c1ccc(C(=O)Cn2cnc(C#N)n2)cc1` was 4.71%.
The value for `O=S(=O)(C=Cc1ccccc1)N1CCc2sccc2C1` was 11.8%.
For `Sc1cnc2ccccc2n1` the value was 6.61%; for `CCNC(=O)C(C#N)=Cc1ccc(OC(F)F)cc1`, 2.17%.
On to `CCc1ccc(C=CS(=O)(=O)Nc2onc(C)c2C)cc1`, for which the Inhibition % is given as 4.3%.
`C=CC(=O)N1CCN(C(=O)C(C)(C)C)CC1`: the Inhibition % was 7.52%.
As for `C#Cc1cccc(NC(=O)NC(=O)CCl)c1`, the Inhibition % is given as 6.09%.
For `CC1(C)OB(c2ccc3c(c2)C(=O)C(=O)N3)OC1(C)C` the value was 17%; for `CN(CC1CCCCC1)C(=O)CCl`, 50%; for `C#CC(=O)Nc1cccc(C(=O)O)c1C`, 8%.
For `CCn1c(S)nc2ncccc2c1=O` the value was 2.8%.
The value for `Cc1n[nH]c(C)c1C=C(C#N)C(=O)c1ccccc1F` was 9.5%; that for `CN(C)Cc1cccc(SC(=O)N(C)C)c1` was 5.21%; that for `O=C(N1CCC2CCCCC2C1)n1ccnc1` (stereo not shown) was 11.2%.
For `Cn1c(S)nc2cc(C(=O)O)ccc2c1=O`, the Inhibition % amounted to 4.06%.
The value for `O=S(=O)(F)c1ccc(Cl)c(S(=O)(=O)F)c1` was -3.28%; that for `N#Cc1ccc(NC2CCCCC2O)cn1` (stereo not shown) was 5.62%.
For `CC(C)Oc1cccnc1C#N` the value was 4.58%; for `COc1ccc(C#N)nc1`, 6.65%.
The value for `COc1ccc(N(C#N)CCCF)cc1` was 1.89%.
Take `Cc1ccc(-n2cnc(Cl)c2C#N)cc1`: the Inhibition % amounted to 6.79%.
For the molecule `CCc1nccn1S(=O)(=O)c1cc(C)ccc1OC`, the Inhibition % was found to be 7.61%.
For `N#Cc1cccc(C(F)(F)F)n1` the value was 8.35%.
In the case of `CC1CC(Sc2cnccn2)C(=O)O1` (stereo not shown), the Inhibition % is 48.8%.
For `O=C(c1cccnc1S)N1CCOC(C2CCCO2)C1` (stereo not shown), the Inhibition % came out at 2.52%.
For `CC(C)(C)OC(=O)N1CCOc2cc(B3OC(C)(C)C(C)(C)O3)ccc2C1` the value was 3.67%; for `O=C1NC(c2cccs2)C12CCC2` (stereo not shown), 5.83%.
`CC1(c2ccc(B3OC(C)(C)C(C)(C)O3)cc2)CC1`: the Inhibition % came to 2.29%.
`CCc1nccn1S(=O)(=O)c1ccc(Cl)c(C)c1`: the Inhibition % was 1.29%.
With `C=CC(=O)N1CCC(=C(F)F)CC1`, the Inhibition % was determined as 1.76%.
For `Cc1cc(Cn2c(-c3ccccc3C)noc2=O)on1` the value was 7.43%.
As for `Cc1nc(S(=O)(=O)Oc2ccccc2F)cn1C`, the Inhibition % came to 6.3%.
Take `CN(C)c1ccnc(C#N)c1`: the Inhibition % stood at 2.64%.
For `O=C(CCl)NCCOc1ccccc1` the value was 14%.
For `Cn1c(=O)ccn(CC(=O)Nc2cccc(S(=O)(=O)F)c2)c1=O`, the Inhibition % was 99.6%.
The value for `N#Cc1ccc(NCCNC(=O)c2ccc(Cl)cc2)cn1` was 5.08%; that for `Cc1nn(C)c(Cl)c1C=CC(=O)N1CCC(C)(C(=O)O)C1` (stereo not shown) was 7.72%.
For the molecule `N#Cc1c(N)cc(N)nc1S`, the Inhibition % is on record as 8.16%.
The value for `O=C(CN1CCCCC1C1OCCO1)N1CCCCC1` (stereo not shown) was 14.4%; that for `CCOc1ccc(CN(C)C(=O)CCl)cc1` was 67.6%; that for `Cc1nc(Sc2nccnc2C#N)sc1C` was 2.84%.
The value for `C=CC(=O)N1CCCc2[nH]c3ccc(F)cc3c2C1` was 71.3%.
The value for `CC1CN(C(=O)CN2CCSC2=O)CC(C)O1` (stereo not shown) was 3.33%; that for `Cn1ncnc1NS(=O)(=O)c1ccc(S(=O)(=O)F)cc1` was 5.71%; that for `Cn1nccc1C=CC(=O)N1CCCC(C(=O)O)C1` (stereo not shown) was 0.394%.
`CC(C)(C)c1ccc(S(=O)(=O)n2cccn2)cc1`: the Inhibition % is given as 9.92%.
For `CS(=O)(=O)OCC1CCCC1`, the Inhibition % was -2.46%.
For `O=C(CCl)NCc1ccc(C(=O)N2CCCC2)cc1` the value was 4.96%.
The value for `C=CC(=O)Nc1ccc2c(c1)CCC(=O)N2` was 9.43%; that for `ClCCCOc1ccccc1` was 9.16%.
For `O=C(O)CCNS(=O)(=O)C=Cc1ccccc1` the value was 6.07%.
Turning to `C=CC(=O)N1CCN(c2cccc(F)c2)C(=O)C1`, the Inhibition % is reported as 14.2%.
The value for `CC(C)(C)C(=O)Cn1cnc(C#N)n1` was 8.71%; that for `O=C(CCl)Nc1ccccc1C(F)(F)F` was 11.7%.
`C=CC(=O)N1CCC(c2cc3ccccc3[nH]2)C1` (stereo not shown): the Inhibition % came out at 13.2%.
For `C=CC(=O)Nc1ccnc(OC2CCOC2)c1` (stereo not shown) the value was 6.94%; for `CC(Cl)C1CC(c2ccccc2)=NO1` (stereo not shown), 6.06%; for `CN(C)C(=O)Oc1cccc(NC(=O)N2CCOCC2)c1`, 9.53%.
As for `O=C1OCCC1N1CCOC(Cn2cccn2)C1` (stereo not shown), the Inhibition % amounted to 3.69%.
For the molecule `C=CC(=O)N(C)C1C(C)CCCC1C` (stereo not shown), the Inhibition % was 5.45%.
For `Cc1cc(NC(=O)CCN(C#N)c2ccccc2)no1` the value was 4.15%.
For `N#Cc1ncccc1S` the value was 19.2%; for `CCN1CCN(c2ccc(NC(=O)CCl)cc2)CC1.Cl`, 37.8%.
For the molecule `N#Cc1ncn(Cc2cccc(F)c2)n1`, the Inhibition % is listed as -0.226%.
The value for `CC1(C)COC(=O)C1NC(=O)Nc1ccc(F)cn1` (stereo not shown) was 8.35%; that for `CC(C)(C)c1ccnc(S)n1` was 41.3%.
For `CCOc1ccc(S(=O)(=O)n2ccnc2C(C)C)cc1C` the value was 2.99%; for `O=C(CC1C=CS(=O)(=O)C1)NCc1cccc(F)c1` (stereo not shown), 6.58%; for `C=CC(=O)N1CCN(Cc2ncc(-c3ccccc3)o2)CC1`, 12.5%.
The value for `N#Cc1ncn(CC(=O)N2CCc3ccccc32)n1` was 2.7%; that for `Cc1noc(C)c1CCn1ccnc1C#N` was 0.0226%; that for `Cc1ccc(S(=O)(=O)n2ccc(C(=O)O)c2)cc1` was 11.3%.
Consider `C=CC(=O)NC1CCCC(CC)C1` (stereo not shown), for which the Inhibition % is 6.12%.
For the molecule `CC1(C)OB(c2cc3occc3cc2F)OC1(C)C`, the Inhibition % was -1.65%.
For `CC1(C)OB(c2ccc(C3(CO)CC3)cc2)OC1(C)C` the value was 2.39%; for `Cc1csc(NC(=O)CCl)n1`, -1.74%; for `CN1CC(=O)OB(c2ccc(C(F)(F)F)cn2)OC(=O)C1`, 3.49%.
As to `O=C(CCCl)Nc1ccnn1C1CCCC1`, the Inhibition % turned out to be 15.8%.
For `Cc1nc(C#N)c(NCCc2ccccc2)o1` the value was 6.1%; for `C=CC(=O)NC1CCOC(CC)C1` (stereo not shown), 10.5%; for `CC(C)(C)c1n[nH]cc1C=C(C#N)C(=O)N1CCCC1`, 6.17%.
For `Cn1cc(S(=O)(=O)Oc2cnc3ccccc3c2)cn1` the value was 6.55%; for `O=[N+]([O-])c1cccc(S(=O)(=O)F)c1`, 99.2%; for `C=CC(=O)N(C)CC1CCCc2sc(C)nc21` (stereo not shown), 7.4%.
The value for `N#Cc1ncn(CC(=O)N2CCCC3CCCCC32)n1` (stereo not shown) was -1.06%; that for `CCCc1cccc(B2OC(C)(C)C(C)(C)O2)c1` was 5.49%; that for `O=C(N1CCc2sccc2C1)n1ccnc1` was 15.4%.
For `C=CC(=O)NC1CCC(C(=O)NC)CC1` (stereo not shown), the Inhibition % was determined as 10.1%.
The value for `C1CN(CC2CO2)CCS1` (stereo not shown) was 6.78%; that for `C=CC(=O)N1CC2CCC2(N)C1.O=C(O)C(F)(F)F` (stereo not shown) was 4.78%; that for `Cc1cc(S(=O)(=O)n2cccn2)ccc1F` was 11.6%.
For `CCSc1nccnc1C#N` the value was 2.19%; for `O=C(c1ccccc1Cl)N1CCCCC1C1OCCO1` (stereo not shown), 5.3%; for `O=C(O)c1ccc(CS)c(F)c1`, 82.7%.
For `Cc1[nH]c(C#N)cc1C(=O)N[C@@H]1C[C@@H](O)C12CCOCC2` the value was 4.76%; for `CC1(C)OB(C2=CCSC2)OC1(C)C`, 6.89%; for `Cc1ccc2c(c1)CCCN2C(=O)CCN1CCSC1=O`, 15%.
In the case of `CN1C=CC(=C(C#N)C(=O)CCl)C=C1`, the Inhibition % came out at 9.45%.
For `CC1(C)Cc2cc(C=C(C#N)C(N)=O)ccc2O1` the value was 12.2%.
Regarding `C=CC(=O)N1CCC2(CCc3ccccc3O2)CC1`, the Inhibition % was 10.1%.
For `C=CC(=O)Nc1cccc(Cl)c1` the value was 1.86%; for `C=CC(=O)NCCN1CCCC(C)(C)C1`, 8.42%.
As for `COc1ccc(C=C(C#N)C(N)=S)cc1O`, the Inhibition % is given as 14.8%.
For `O=C(CCl)Nc1ccccc1Sc1ccccc1` the value was 48.7%; for `C=CC(=O)NCc1c(C2CC2)cnn1C`, 1.86%; for `Cc1ccc(F)c(OS(=O)(=O)c2cn[nH]c2C)c1`, 11.7%.
For `Cc1ccccc1OCCn1cnc(C#N)n1` the value was 4.98%; for `Cc1cccc(NC2C=CS(=O)(=O)C2)c1` (stereo not shown), 7.19%.
